Test results published in publication PMC4336329 (PLoS ONE, 2015).
Out of some 310,000 compounds screened, about 14,000 (4.5%) showed an effect of 50% or more. Effects have a minus sign here. Some of the results follow.

Molecular target: human ether-à-go-go-related gene (hERG) potassium channel (human, UniProt Q12809)
Assay: primary screen, population patch clamp on CHO cells stably expressing hERG
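Also: peak tail current of the secondary pulse compared with the same well before compound.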

Sequence of human ether-à-go-go-related gene (hERG) potassium channel (Q12809 whole entry, looked up): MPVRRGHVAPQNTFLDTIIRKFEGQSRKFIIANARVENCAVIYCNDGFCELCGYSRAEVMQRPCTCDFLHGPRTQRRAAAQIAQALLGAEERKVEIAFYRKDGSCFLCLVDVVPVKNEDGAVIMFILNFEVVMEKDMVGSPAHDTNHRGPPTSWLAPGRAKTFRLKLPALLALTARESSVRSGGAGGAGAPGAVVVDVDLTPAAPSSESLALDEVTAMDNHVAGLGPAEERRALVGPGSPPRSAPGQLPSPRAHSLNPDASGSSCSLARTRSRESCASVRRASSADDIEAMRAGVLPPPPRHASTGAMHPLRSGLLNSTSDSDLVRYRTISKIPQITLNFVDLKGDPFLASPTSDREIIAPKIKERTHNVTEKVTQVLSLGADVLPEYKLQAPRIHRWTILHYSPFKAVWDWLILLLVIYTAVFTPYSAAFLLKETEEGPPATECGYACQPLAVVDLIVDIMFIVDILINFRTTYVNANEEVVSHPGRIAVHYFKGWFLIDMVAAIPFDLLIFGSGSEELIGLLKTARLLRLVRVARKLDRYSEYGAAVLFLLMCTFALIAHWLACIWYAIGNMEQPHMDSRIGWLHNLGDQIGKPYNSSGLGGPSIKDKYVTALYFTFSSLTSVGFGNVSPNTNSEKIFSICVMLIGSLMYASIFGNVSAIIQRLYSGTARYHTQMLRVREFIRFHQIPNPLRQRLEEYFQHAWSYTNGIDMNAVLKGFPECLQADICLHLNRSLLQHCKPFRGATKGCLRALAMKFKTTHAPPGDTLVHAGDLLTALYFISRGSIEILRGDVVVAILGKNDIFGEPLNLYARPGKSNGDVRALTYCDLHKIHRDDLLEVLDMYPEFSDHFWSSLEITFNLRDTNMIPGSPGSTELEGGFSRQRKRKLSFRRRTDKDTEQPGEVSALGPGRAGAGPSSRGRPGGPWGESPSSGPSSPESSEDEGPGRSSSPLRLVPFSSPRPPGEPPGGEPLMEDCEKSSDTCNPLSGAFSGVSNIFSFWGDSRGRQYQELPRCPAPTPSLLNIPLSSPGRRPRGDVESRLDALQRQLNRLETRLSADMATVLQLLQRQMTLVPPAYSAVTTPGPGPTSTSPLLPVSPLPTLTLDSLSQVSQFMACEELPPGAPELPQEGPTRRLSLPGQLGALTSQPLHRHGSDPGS

Compound	hERG current change (%, negative = inhibition) at 10uM [%]
Cc1cc(S(=O)(=O)N2CCOCC2)ccc1OCC(=O)Nc1ccc(Br)cc1F	12.7
CCCCn1c(SCC(N)=O)nc2c(sc3ccccc32)c1=O	-12.4
CC(=O)NC(CC(=O)NC(C)c1ccc(Cl)cc1Cl)c1ccccc1 (centres unmarked)	-11.6
CCc1ccc(OCC(=O)Nc2cccc3c2CCCC3)cc1	6.68
CCOC(=O)CNC(=O)C(=O)c1c(O)[nH]c2ccccc12	9.92
CCOC(=O)c1c(C)[nH]c(=S)c(C#N)c1-c1ccc(OC)cc1	12.5
Cc1ccc(NC(=O)CCCc2ccccc2)c([N+](=O)[O-])c1	9.84
Cc1cc(N2CCOCC2)ncc1[N+](=O)[O-]	-4.31
CC(=O)NS(=O)(=O)c1ccc(NC(=O)CC(C)c2ccccc2)cc1 (centres unmarked)	11.8
Cc1cc(Nc2ccccc2)c2c([N+](=O)[O-])c(C)cc(C)c2n1	-5.28
COc1ccc(NC(=O)Cc2ccccc2F)cc1S(=O)(=O)N1CCCCC1	-0.328
Nc1ccccc1SCc1cn2cccnc2n1	-11.3
CCN(CC)CCNc1nc(-c2ccccc2)c2c(c1C#N)CC(C)(C)OC2	-66.4
Cc1cc(=O)n2[nH]c(=O)c(N=Nc3ccccc3)c2[nH]1	12.9
COc1cc(OC)c(OC)cc1/C=N/Nc1ncnc2c1[nH]c1ccccc12	-10.7
Cc1cccc(NC(=O)[C@@H](NC(=O)[C@@H]2Cc3ccccc3CN2)C(C)C)c1	-62.4
CCOc1cc(CNCC2CCCO2)cc(Br)c1OCC(N)=O.Cl (centres unmarked)	-3.59
COc1ccc(CNC(=O)CCC(=O)N2CC(C)Oc3ccccc32)cc1 (centres unmarked)	-25.4
CC(=O)Nc1ccc(S(=O)(=O)N2CCCC(C(=O)N3CCN(c4ccccc4)CC3)C2)cc1 (centres unmarked)	-50.9
COc1ccc(N2CCN(CC(O)COc3c(OC)cccc3OC)CC2)cc1.Cl (centres unmarked)	-35.3
O=C(CCSc1ccc(Cl)cc1)NC12CC3CC(CC(C3)C1)C2	26
COc1cccc(OC)c1C(=O)Nc1cccnc1	-5.88

Compound	hERG current change (%, negative = inhibition) at 10uM [%]
CCN(CC)S(=O)(=O)c1ccc(C)c(NC(=O)Cn2cnc3cc([N+](=O)[O-])ccc3c2=O)c1	-55.7
COCCN1C(=O)N[C@@H](c2cccc(C(F)(F)F)c2)C(C(=O)OC)=C1C	12.7
Cc1c(C#N)c(=O)oc2ccc3ccccc3c12	9.93
Cc1csc(NC(=O)c2ccco2)c1C(=O)c1ccccc1	10.2
C#CCOc1ccc(Br)cc1/C=N/O	0.729
COc1cc(-c2nnc(Sc3ccc(C(F)(F)F)cc3[N+](=O)[O-])o2)cc(OC)c1OC	3.03
O=C(COc1cccnc1[N+](=O)[O-])Nc1ccc2c(c1)OC(F)(F)O2	-11.2
Cc1ccc(S(=O)(=O)N2CCCCC2)cc1NC(=O)CSc1nccn1C	-9.3
CCOC(=O)C1CCN(C(=O)CNC(=O)OC(C)(C)C)CC1	5.68
COc1ccc(S(=O)(=O)N2CCc3ccccc32)cc1C(=O)N1CCN(C=O)CC1	-2.51
O=c1c2cc(Br)ccc2[nH]c(=S)n1Cc1ccccc1	17.8
COc1ccc(OC)c(N(CC(=O)N2CCCCC2)S(=O)(=O)c2ccc(OC)c(OC)c2)c1	10.6
CC(C)(C)c1cc2cccnc2n1Cc1ccccc1	-13.2
C/C(CC(=O)NCc1ccco1)=N\NC(=O)Cc1cccc2ccccc12	-5.36
CNC(=O)c1cccc(N2CCCC2=O)c1	14.7
CCCCn1c(=O)c(CCC(=O)OC(C)C(=O)Nc2cccc(Cl)c2Cl)nc2ccccc21 (centres unmarked)	-6.94
O=C(NNC(=O)c1ccc(S(=O)(=O)N2CCOCC2)cc1)c1ccccc1	17.5
CCC(=O)c1cc(-c2nc3ccccc3n2C)n(C)c1	-2.09
Cc1ccc(O)c(C(=O)c2cnc3c(c2)c(=O)n(C)c(=O)n3C)c1	9.19
Cc1cccc(C)c1NC(=O)C[n+]1cc(-c2ccccc2)n2c1CCC2.[Cl-]	11.3
Cc1ccc(CNC(=O)C(=O)NCC2OCCN2S(=O)(=O)c2ccc(Br)cc2)cc1 (centres unmarked)	4.4
COc1cccc(NC(=O)Cn2c(=O)c3c(ncn3Cc3ccccc3)n(Cc3ccccc3)c2=O)c1	-0.187
